From publication PMC4340055 (Methods in molecular biology (Clifton, N.J.), 2015) come the findings set out here.

Several values for one entry are separate records, joined by “and”; a condition that tells them apart may be missing. Equal entries are not always repeated.

The series concerns the molecule itself. The experiment in a line: native gel or EMSA. (In EMSA bound probe runs differently from free probe, usually more slowly.)

B1: Cy3-Hfq:S65C protein (natural protein)
chain: not shown
modifications: Cy3-maleimide on the cysteine of S65C
The stoichiometry N is a count of units in the complex or per binding partner. B1: the “stoichiometry N” value was 6 and 12.
